# According to PMC11995724, “Antibiotic target discovery by integrated phenotypic and activity-based profiling of electrophilic fragments” (Cell chemical biology, 2025):
# Screen size: about 3,200 compounds; about 110 (3.4%) showed an effect of 50% or more. The list shows a part of the results.
# System: T1, V. cholerae SAD30
# T1 construct: SAD30
# Parameters: species or system S. aureus MSSA476 (TSB) or V. cholerae SAD30 (LB); 384-well bacterial growth screen at 25 uM, OD600 relative to DMSO control
# Conditions: relative growth, OD600, LB; 25 µM; inhibitor
row,Compound,% of control remaining
1,"COc1ccc(N(C)C(=O)C(C)Cl)cc1Cl (centres unmarked) [7-C14, 2-chloro-N-(3-chloro-4-methoxyphenyl)-N-methylpropanamide]",74.0129%
2,"CC(Cl)C(=O)Nc1ccccc1C(N)=O (centres unmarked) [5-G05, 2-(2-chloropropanamido)benzamide]",106.42%
3,"COc1ccc(CNC(=O)C(C)Cl)cc1 (centres unmarked) [5-J18, 2-chloro-N-[(4-methoxyphenyl)methyl]propanamide]",97.1735%
4,"Cc1ccc(C)c(NC(=O)CN(C)C(=O)CCl)c1 [6-N04, 2-chloro-N-{[(2,5-dimethylphenyl)carbamoyl]methyl}-N-methylacetamide]",95.7058%
5,"C=CCNC(=O)C(C#N)=CC=Cc1ccccc1 [9-J08, 2-cyano-5-phenyl-N-(prop-2-en-1-yl)penta-2,4-dienamide]",79.4697%
6,"C=CC(=O)NCCn1cc(Cl)c(C(F)(F)F)n1 [2-F03, N-{2-[4-chloro-3-(trifluoromethyl)-1H-pyrazol-1-yl]ethyl}prop-2-enamide]",108.106%
7,"O=C(CCl)N1CCOc2c1cccc2C(F)(F)F [5-G08, 2-chloro-1-[8-(trifluoromethyl)-3,4-dihydro-2H-1,4-benzoxazin-4-yl]ethan-1-one]",76.6628%
8,"CCN(CC)S(=O)(=O)c1ccc(NC(=O)CCl)cc1 [4-K07, 2-chloro-N-[4-(diethylsulfamoyl)phenyl]acetamide]",100.237%
9,"Cn1cc(CN(C(=O)CCl)c2ccc(F)cc2)cn1 [6-D08, 2-chloro-N-(4-fluorophenyl)-N-[(1-methyl-1H-pyrazol-4-yl)methyl]acetamide]",84.6336%
10,"C=CC(=O)N1CCC(C(=O)NCc2ccoc2C)CC1 [1-E14, N-[(2-methylfuran-3-yl)methyl]-1-(prop-2-enoyl)piperidine-4-carboxamide]",89.0882%
11,"O=C(CCl)NCc1cc(O)ccc1Cl [7-J21, 2-chloro-N-[(2-chloro-5-hydroxyphenyl)methyl]acetamide]",94.7629%
12,"O=C(CCl)N1N=C(c2ccsc2)CC1c1cccc(F)c1 (centres unmarked) [4-C22, 2-chloro-1-[5-(3-fluorophenyl)-3-(thiophen-3-yl)-4,5-dihydro-1H-pyrazol-1-yl]ethan-1-one]",124.563%
13,"O=C(CCl)N(CC1=CCSC1)c1ccccc1 [4-F11, 2-chloro-N-[(2,5-dihydrothiophen-3-yl)methyl]-N-phenylacetamide]",104.205%
14,"C=CC(=O)NCc1cn(C2CCC2)nn1 [3-D09, N-[(1-cyclobutyl-1H-1,2,3-triazol-4-yl)methyl]prop-2-enamide]",94.0305%
15,"C=CC(=O)Nc1ccc2c(c1)S(=O)(=O)CC2 [3-O15, N-(1,1-dioxo-2,3-dihydro-1lambda6-benzothiophen-6-yl)prop-2-enamide]",104.97%
16,"Cc1ccoc1C=C(C#N)C(=O)NCCc1ccccc1 [9-N03, 2-cyano-3-(3-methylfuran-2-yl)-N-(2-phenylethyl)prop-2-enamide]",85.588%
17,"C=CC(=O)NCCc1nnc(C)s1 [3-G22, N-[2-(5-methyl-1,3,4-thiadiazol-2-yl)ethyl]prop-2-enamide]",109.204%
18,"C=CC(=O)NC1CN(C(C)=O)C1 [1-N22, N-(1-acetylazetidin-3-yl)prop-2-enamide]",144.014%
19,"C=CC(=O)NCC(c1c(F)cccc1F)N1CC(C)OC(C)C1 (centres unmarked) [1-I13, N-[2-(2,6-difluorophenyl)-2-(2,6-dimethylmorpholin-4-yl)ethyl]prop-2-enamide]",82.5112%
20,"O=C(CCl)N1N=C(c2cccs2)CC1c1cccc(O)c1 (centres unmarked) [6-L04, 2-chloro-1-[5-(3-hydroxyphenyl)-3-(thiophen-2-yl)-4,5-dihydro-1H-pyrazol-1-yl]ethan-1-one]",102.076%
21,"CC(Cl)C(=O)N(C)CC(=O)Nc1ccccc1C(F)(F)F (centres unmarked) [4-N05, 2-chloro-N-methyl-N-({[2-(trifluoromethyl)phenyl]carbamoyl}methyl)propanamide]",110.761%
22,"CC(C)NC(=O)C(C#N)=Cc1ccc(Cl)cc1 [9-C09, 3-(4-chlorophenyl)-2-cyano-N-(propan-2-yl)prop-2-enamide]",85.3161%
23,"O=C(CCl)NCC1CN(Cc2ccccc2)CCO1 (centres unmarked) [4-H18, N-[(4-benzylmorpholin-2-yl)methyl]-2-chloroacetamide]",103.343%
24,"C=CC(=O)N1CCC(C(=O)N2CCCCCC2c2ccco2)CC1 (centres unmarked) [2-N20, 1-{4-[2-(furan-2-yl)azepane-1-carbonyl]piperidin-1-yl}prop-2-en-1-one]",91.4311%
25,"Cc1nc(C)n(C2CCCN(C(=O)C(C)Cl)C2)n1 (centres unmarked) [7-P13, 2-chloro-1-[3-(3,5-dimethyl-1H-1,2,4-triazol-1-yl)piperidin-1-yl]propan-1-one]",82.3393%
26,"N#CC(=Cc1ccc(F)c(F)c1)C(=O)NC1CC1 [9-M06, 2-cyano-N-cyclopropyl-3-(3,4-difluorophenyl)prop-2-enamide]",89.8029%
27,"C=CC(=O)Nc1cc(C(C)(C)C)nn1-c1ncccn1 [1-E04, N-[3-tert-butyl-1-(pyrimidin-2-yl)-1H-pyrazol-5-yl]prop-2-enamide]",99.5516%
28,"Cn1c(N)c(C(=O)CCl)c(=O)n(C)c1=O [10-E14, 6-amino-5-(2-chloroacetyl)-1,3-dimethyl-1,2,3,4-tetrahydropyrimidine-2,4-dione]",103.331%
29,"CCNC(=O)C(C#N)=Cc1c(N2CCOCC2)nc2ccccn2c1=O [9-O06, 2-cyano-N-ethyl-3-[2-(morpholin-4-yl)-4-oxo-4H-pyrido[1,2-a]pyrimidin-3-yl]prop-2-enamide]",97.0088%
